Measured values as given in publication PMC9911399, “Two distinct binding modes provide the RNA-binding protein RbFox with extraordinary sequence specificity”.
Changes are numbered by the printed parent chain; changes in the protein carry UniProt numbers. The list shows a part of the results.

T1: RBFOX1 RRM (Homo sapiens, UniProt Q9NWB1 109-208)
T1 sequence: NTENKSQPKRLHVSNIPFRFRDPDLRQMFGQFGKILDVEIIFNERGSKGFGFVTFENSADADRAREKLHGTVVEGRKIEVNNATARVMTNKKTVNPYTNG

B1: AUCAGAU (DNA:RNA)
RNA: GGGAGACCGGAAUUCAGAUUGUCCAUCAGAUUUAAAUCCCGUCGUAGCCACCA
DNA 1: CAATCTGAATTCCGGTCTCCC
DNA 2: TGGTGGCTACGACGGGATT
B2: CUCGACG (DNA:RNA)
RNA: B1 RNA with A25C, A28G, G29A, A30C, U31G
DNA 1: CAATCTGAATTCCGGTCTCCC
DNA 2: TGGTGGCTACGACGGGATT
B3: UGACAAU (DNA:RNA)
RNA: B1 RNA with A25U, U26G, C27A, A28C, G29A
DNA 1: CAATCTGAATTCCGGTCTCCC
DNA 2: TGGTGGCTACGACGGGATT
B4: CUGAGGU (DNA:RNA)
RNA: B1 RNA with A25C, C27G, A30G
DNA 1: CAATCTGAATTCCGGTCTCCC
DNA 2: TGGTGGCTACGACGGGATT
B5: GAAAGGU (DNA:RNA)
RNA: B1 RNA with A25G, U26A, C27A, A30G
DNA 1: CAATCTGAATTCCGGTCTCCC
DNA 2: TGGTGGCTACGACGGGATT
B6: UGCACUC (DNA:RNA)
RNA: B1 RNA with A25U, U26G, G29C, A30U, U31C
DNA 1: CAATCTGAATTCCGGTCTCCC
DNA 2: TGGTGGCTACGACGGGATT
B7: ACAAUUC (DNA:RNA)
RNA: B1 RNA with U26C, C27A, G29U, A30U, U31C
DNA 1: CAATCTGAATTCCGGTCTCCC
DNA 2: TGGTGGCTACGACGGGATT
B8: CGAACCC (DNA:RNA)
RNA: B1 RNA with A25C, U26G, C27A, G29C, A30C, U31C
DNA 1: CAATCTGAATTCCGGTCTCCC
DNA 2: TGGTGGCTACGACGGGATT
B9: ACACCUG (DNA:RNA)
RNA: B1 RNA with U26C, C27A, A28C, G29C, A30U, U31G
DNA 1: CAATCTGAATTCCGGTCTCCC
DNA 2: TGGTGGCTACGACGGGATT
B10: AUGUCUA (DNA:RNA)
RNA: B1 RNA with C27G, A28U, G29C, A30U, U31A
DNA 1: CAATCTGAATTCCGGTCTCCC
DNA 2: TGGTGGCTACGACGGGATT
B11: GUUCCGG (DNA:RNA)
RNA: B1 RNA with A25G, C27U, A28C, G29C, A30G, U31G
DNA 1: CAATCTGAATTCCGGTCTCCC
DNA 2: TGGTGGCTACGACGGGATT
B12: UGAUCAG (DNA:RNA)
RNA: B1 RNA with A25U, U26G, C27A, A28U, G29C, U31G
DNA 1: CAATCTGAATTCCGGTCTCCC
DNA 2: TGGTGGCTACGACGGGATT
B13: GUUCAUG (DNA:RNA)
RNA: B1 RNA with A25G, C27U, A28C, G29A, A30U, U31G
DNA 1: CAATCTGAATTCCGGTCTCCC
DNA 2: TGGTGGCTACGACGGGATT
B14: CCUGAUC (DNA:RNA)
RNA: GGGAGACCGGAAUUCAGAUUGUCCCCUGAUCUUAAAUCCCGUCGUAGCCACCA
DNA 1: CAATCTGAATTCCGGTCTCCC
DNA 2: TGGTGGCTACGACGGGATT
B15: ACAGUGA (DNA:RNA)
RNA: B14 RNA with C25A, U27A, A29U, U30G, C31A
DNA 1: CAATCTGAATTCCGGTCTCCC
DNA 2: TGGTGGCTACGACGGGATT
B16: CGUUUAC (DNA:RNA)
RNA: B14 RNA with C26G, G28U, A29U, U30A
DNA 1: CAATCTGAATTCCGGTCTCCC
DNA 2: TGGTGGCTACGACGGGATT
B17: AAAGUAC (DNA:RNA)
RNA: B1 RNA with U26A, C27A, A28G, G29U, U31C
DNA 1: CAATCTGAATTCCGGTCTCCC
DNA 2: TGGTGGCTACGACGGGATT
B18: AUGACUG (DNA:RNA)
RNA: B1 RNA with C27G, G29C, A30U, U31G
DNA 1: CAATCTGAATTCCGGTCTCCC
DNA 2: TGGTGGCTACGACGGGATT
B19: GUCUACG (DNA:RNA)
RNA: B1 RNA with A25G, A28U, G29A, A30C, U31G
DNA 1: CAATCTGAATTCCGGTCTCCC
DNA 2: TGGTGGCTACGACGGGATT
B20: AAGCAUA (DNA:RNA)
RNA: B14 RNA with C25A, C26A, U27G, G28C, C31A
DNA 1: CAATCTGAATTCCGGTCTCCC
DNA 2: TGGTGGCTACGACGGGATT
B21: CUACUCG (DNA:RNA)
RNA: B1 RNA with A25C, C27A, A28C, G29U, A30C, U31G
DNA 1: CAATCTGAATTCCGGTCTCCC
DNA 2: TGGTGGCTACGACGGGATT
B22: GCGGAUG (DNA:RNA)
RNA: B14 RNA with C25G, U27G, C31G
DNA 1: CAATCTGAATTCCGGTCTCCC
DNA 2: TGGTGGCTACGACGGGATT
B23: GUUGGAC (DNA:RNA)
RNA: B1 RNA with A25G, C27U, A28G, U31C
DNA 1: CAATCTGAATTCCGGTCTCCC
DNA 2: TGGTGGCTACGACGGGATT
B24: GGAAUCU (DNA:RNA)
RNA: B1 RNA with A25G, U26G, C27A, G29U, A30C
DNA 1: CAATCTGAATTCCGGTCTCCC
DNA 2: TGGTGGCTACGACGGGATT
B25: CCGAUAU (DNA:RNA)
RNA: B1 RNA with A25C, U26C, C27G, G29U
DNA 1: CAATCTGAATTCCGGTCTCCC
DNA 2: TGGTGGCTACGACGGGATT
B26: UCCUAAC (DNA:RNA)
RNA: B14 RNA with C25U, U27C, G28U, U30A
DNA 1: CAATCTGAATTCCGGTCTCCC
DNA 2: TGGTGGCTACGACGGGATT
B27: CGAUUUU (DNA:RNA)
RNA: B14 RNA with C26G, U27A, G28U, A29U, C31U
DNA 1: CAATCTGAATTCCGGTCTCCC
DNA 2: TGGTGGCTACGACGGGATT
B28: GAUCACA (DNA:RNA)
RNA: B14 RNA with C25G, C26A, G28C, U30C, C31A
DNA 1: CAATCTGAATTCCGGTCTCCC
DNA 2: TGGTGGCTACGACGGGATT
B29: GCAUCCC (DNA:RNA)
RNA: B14 RNA with C25G, U27A, G28U, A29C, U30C
DNA 1: CAATCTGAATTCCGGTCTCCC
DNA 2: TGGTGGCTACGACGGGATT
B30: UUCAGUC (DNA:RNA)
RNA: B1 RNA with A25U, A30U, U31C
DNA 1: CAATCTGAATTCCGGTCTCCC
DNA 2: TGGTGGCTACGACGGGATT
B31: CGCGGUC (DNA:RNA)
RNA: B14 RNA with C26G, U27C, A29G
DNA 1: CAATCTGAATTCCGGTCTCCC
DNA 2: TGGTGGCTACGACGGGATT

The binders below were run against T1, RBFOX1 RRM (assay: EMSA; HiTS-Eq, 1 nM pool, 10 min; buffer printed only for the single-RNA assays: 10 mM Tris pH 7.5, 150 mM NaCl, 3.4 mM EDTA, 0.001% NP-40, 30 C). Conditions: tags: His6 N-terminal (pET28a); label: 5' 32P.
Outline: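 A pool of RNA with 7 randomized nucleotides, 5′-radiolabelled and with DNA-annealed flanks, was equilibrated at 1 nM for 10 min in 50 µL with purified RbFox RRM, wild type or mutant, across increasing protein concentrations. Free RNA was separated by 8% native PAGE, excised, reverse-transcribed, barcoded by PCR and sequenced. Relative association constants were obtained from read-count changes of each RNA species versus the control reaction and normalised to the cognate motif.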
With B1 the binding signal was 0.00568 KA relative to UGCAUGU. In the case of B2, the binding signal is reported as 0.00717 KA relative to UGCAUGU. B3 was tested, and the binding signal was 0.0123 KA relative to UGCAUGU. B4 was tested, and the binding signal was 0.0176 KA relative to UGCAUGU. B5 was tested, and the binding signal was 0.00433 KA relative to UGCAUGU. In the case of B6, the binding signal is reported as 0.0161 KA relative to UGCAUGU. With B7 the binding signal was 0.00135 KA relative to UGCAUGU. B8 was tested, and the binding signal was 0.00354 KA relative to UGCAUGU. With B9 the binding signal was 0.00135 KA relative to UGCAUGU. In the case of B10, the binding signal is reported as 0.00606 KA relative to UGCAUGU. For B11, the binding signal was 0.0142 KA relative to UGCAUGU. With B12 the binding signal was 0.0206 KA relative to UGCAUGU. With B13 the binding signal was 0.0107 KA relative to UGCAUGU. B14 was tested, and the binding signal was 0.0101 KA relative to UGCAUGU. B15 was tested, and the binding signal was 0.00623 KA relative to UGCAUGU. For B16, the binding signal was 0.00846 KA relative to UGCAUGU. For B17, the binding signal was 0.00371 KA relative to UGCAUGU. In the case of B18, the binding signal is reported as 0.0149 KA relative to UGCAUGU. With B19 the binding signal was 0.0132 KA relative to UGCAUGU. For B20, the binding signal was 0.00459 KA relative to UGCAUGU. For B21, the binding signal was 0.00852 KA relative to UGCAUGU. B22 was tested, and the binding signal was 0.0133 KA relative to UGCAUGU. In the case of B23, the binding signal is reported as 0.00422 KA relative to UGCAUGU. B24 was tested, and the binding signal was 0.0203 KA relative to UGCAUGU. In the case of B25, the binding signal is reported as 0.00448 KA relative to UGCAUGU. B26 was tested, and the binding signal was 0.00119 KA relative to UGCAUGU. With B27 the binding signal was 0.01 KA relative to UGCAUGU. For B28, the binding signal was 0.00238 KA relative to UGCAUGU. In the case of B29, the binding signal is reported as 0.0182 KA relative to UGCAUGU. In the case of B30, the binding signal is reported as 0.00953 KA relative to UGCAUGU. For B31, the binding signal was 0.00991 KA relative to UGCAUGU.
